# The list shows a part of the results.
# B1: Mincle (Homo sapiens), Q9ULY5 (protein)
# chain: MNSSKSSETQCTERGCFSSQMFLWTVAGIPILFLSACFITRCVVTFRIFQTCDEKKFQLPENFTELSCYNYGSGSVKNCCPLNWEYFQSSCYFFSTDTISWALSLKNCSAMGAHLVVINSQEEQEFLSYKKPKMREFFIGLSDQVVEGQWQWVDGTPLTKSLSFWDVGEPNNIATLEDCATMRDSSNPRQNWNDVTCFLNYFRICEMVGINPLNKGKSL
# Legend:
# Assay in all cases: glycan array binding signal (z-score within array); higher = stronger binding
# Conditions in all cases: glycan notation: IUPAC condensed, linker removed
# [1] = target: Neu5Ac(a2-6)Gal(b1-4)GlcNAc(b1-2)Man(a1-3)[Man(a1-6)]Man(b1-4)GlcNAc(b1-4)GlcNAc
# Procedure, shortened: (§1)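 The Consortium for Functional Glycomics database supplied 3228 glycan arrays, of which those lacking an available protein sequence were dropped. The binding signal, a within-array Z-score, was averaged across arrays of the same protein sequence and across linkers. Negative scores can be read as non-binding.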
# [2] = target: Neu5Ac(a2-6)Gal(b1-4)GlcNAc(b1-2)Man(a1-3)[Neu5Ac(a2-6)Gal(b1-4)GlcNAc(b1-2)Man(a1-6)]Man(b1-4)GlcNAc(b1-4)GlcNAc
# Procedure, shortened: as §1
# [3] = target: Neu5Ac(a2-6)Gal(b1-4)GlcNAc(b1-2)Man(a1-6)Man(b1-4)GlcNAc(b1-4)GlcNAc
# Procedure, shortened: as §1
# [4] = target: Neu5Ac(a2-6)Gal(b1-4)GlcNAc(b1-2)Man(a1-6)[Gal(b1-4)GlcNAc(b1-2)Man(a1-3)]Man(b1-4)GlcNAc(b1-4)GlcNAc
# Procedure, shortened: as §1
# [5] = target: Neu5Ac(a2-6)Gal(b1-4)GlcNAc(b1-2)Man(a1-6)[GlcNAc(b1-2)Man(a1-3)]Man(b1-4)GlcNAc(b1-4)GlcNAc
# Procedure, shortened: as §1
# [6] = target: Neu5Ac(a2-6)Gal(b1-4)GlcNAc(b1-2)Man(a1-6)[Man(a1-3)]Man(b1-4)GlcNAc(b1-4)GlcNAc
# Procedure, shortened: as §1
# [7] = target: Neu5Ac(a2-6)Gal(b1-4)GlcNAc(b1-3)Gal(b1-3)GlcNAc
# Procedure, shortened: as §1
# [8] = target: Neu5Ac(a2-6)Gal(b1-4)GlcNAc(b1-3)Gal(b1-4)GlcNAc
# Procedure, shortened: as §1
# [9] = target: Neu5Ac(a2-6)Gal(b1-4)GlcNAc(b1-3)Gal(b1-4)GlcNAc(b1-3)Gal(b1-4)GlcNAc
# Procedure, shortened: as §1
# [10] = target: Neu5Ac(a2-6)Gal(b1-4)GlcNAc(b1-3)Gal(b1-4)[Fuc(a1-3)]GlcNAc(b1-3)Gal(b1-4)[Fuc(a1-3)]GlcNAc
# Procedure, shortened: as §1
# [11] = target: Neu5Ac(a2-6)Gal(b1-4)GlcNAc(b1-3)GalNAc
# Procedure, shortened: as §1
# [12] = target: Neu5Ac(a2-6)Gal(b1-4)GlcNAc6S
# Procedure, shortened: as §1
# [13] = target: Neu5Ac(a2-6)GalNAc
# Procedure, shortened: as §1
# [14] = target: Neu5Ac(a2-6)GalNAc(b1-4)GlcNAc
# Procedure, shortened: as §1
# [15] = target: Neu5Ac(a2-6)GlcNAc(b1-4)GlcNAc
# Procedure, shortened: as §1
# [16] = target: Neu5Ac(a2-6)GlcNAc(b1-4)GlcNAc(b1-4)GlcNAc
# Procedure, shortened: as §1
# [17] = target: Neu5Ac(a2-8)Neu5Ac
# Procedure, shortened: as §1
# [18] = target: Neu5Ac(a2-8)Neu5Ac(a2-3)Gal(b1-4)Glc
# Procedure, shortened: as §1
# [19] = target: Neu5Ac(a2-8)Neu5Ac(a2-3)[GalNAc(b1-4)]Gal(b1-4)Glc
# Procedure, shortened: as §1
# [20] = target: Neu5Ac(a2-8)Neu5Ac(a2-8)Neu5Ac
# Procedure, shortened: as §1
# [21] = target: Neu5Ac(a2-8)Neu5Ac(a2-8)Neu5Ac(a2-3)Gal(b1-4)Glc
# Procedure, shortened: as §1
# [22] = target: Neu5Ac(a2-8)Neu5Ac(a2-8)Neu5Ac(a2-3)[GalNAc(b1-4)]Gal(b1-4)Glc
# Procedure, shortened: as §1
# [23] = target: Neu5Ac(a2-8)Neu5Ac(a2-8)Neu5Ac(a2-8)Neu5Ac(a2-3)[GalNAc(b1-4)]Gal(b1-4)Glc
# Procedure, shortened: as §1
# [24] = target: Neu5Ac(b2-6)Gal(b1-4)GlcNAc
# Procedure, shortened: as §1
# [25] = target: Neu5Ac(b2-6)GalNAc
# Procedure, shortened: as §1
# [26] = target: Neu5Ac9Ac(a2-3)Gal(b1-3)GlcNAc
# Procedure, shortened: as §1
# [27] = target: Neu5Ac9Ac(a2-3)Gal(b1-4)GlcNAc
# Procedure, shortened: as §1
# [28] = target: Neu5Ac9Ac(a2-6)Gal(b1-4)GlcNAc
# Procedure, shortened: as §1
# [29] = target: Neu5Gc(a2-3)Gal(b1-3)GlcNAc
# Procedure, shortened: as §1
# [30] = target: Neu5Gc(a2-3)Gal(b1-3)[Fuc(a1-4)]GlcNAc
# Procedure, shortened: as §1
# [31] = target: Neu5Gc(a2-3)Gal(b1-4)Glc
# Procedure, shortened: as §1
# [32] = target: Neu5Gc(a2-3)Gal(b1-4)GlcNAc
# Procedure, shortened: as §1
# [33] = target: Neu5Gc(a2-3)Gal(b1-4)[Fuc(a1-3)]GlcNAc
# Procedure, shortened: as §1
# [34] = target: Neu5Gc(a2-6)Gal(b1-4)GlcNAc
# Procedure, shortened: as §1
# [35] = target: Neu5Gc(a2-6)GalNAc
# Procedure, shortened: as §1
# [36] = target: Neu5Gc(b2-6)Gal(b1-4)GlcNAc
# Procedure, shortened: as §1
binder,measurement,setting,value
B1,glycan array binding signal (z-score),[1],-0.08
same,glycan array binding signal (z-score),[2],1.63
same,glycan array binding signal (z-score),[3],0.204
same,glycan array binding signal (z-score),[4],1.83
same,glycan array binding signal (z-score),[5],1
same,glycan array binding signal (z-score),[6],-0.681
same,glycan array binding signal (z-score),[7],-0.325
same,glycan array binding signal (z-score),[8],-0.189
same,glycan array binding signal (z-score),[9],-0.394
same,glycan array binding signal (z-score),[10],-0.415
same,glycan array binding signal (z-score),[11],0.372
same,glycan array binding signal (z-score),[12],-0.005
same,glycan array binding signal (z-score),[13],-0.372
same,glycan array binding signal (z-score),[14],-0.184
same,glycan array binding signal (z-score),[15],1.53
same,glycan array binding signal (z-score),[16],0.446
same,glycan array binding signal (z-score),[17],-0.088
same,glycan array binding signal (z-score),[18],-0.279
same,glycan array binding signal (z-score),[19],-0.338
same,glycan array binding signal (z-score),[20],-0.054
same,glycan array binding signal (z-score),[21],-0.285
same,glycan array binding signal (z-score),[22],0.086
same,glycan array binding signal (z-score),[23],-0.374
same,glycan array binding signal (z-score),[24],-0.201
same,glycan array binding signal (z-score),[25],-0.249
same,glycan array binding signal (z-score),[26],-0.271
same,glycan array binding signal (z-score),[27],-0.14
same,glycan array binding signal (z-score),[28],-0.577
same,glycan array binding signal (z-score),[29],-0.396
same,glycan array binding signal (z-score),[30],-0.375
same,glycan array binding signal (z-score),[31],-0.12
same,glycan array binding signal (z-score),[32],-0.239
same,glycan array binding signal (z-score),[33],-0.195
same,glycan array binding signal (z-score),[34],-0.461
same,glycan array binding signal (z-score),[35],-0.498
same,glycan array binding signal (z-score),[36],-0.036
